According to the supplement of paper PMC3334620:
In all, about 33,000 sequences were measured (“E-score (-0.5 to 0.5)”: median about -0.054, highest 2% from about 0.39 on). This is one part of the list.

Molecular target: Ylr278c (UniProt Q05854)
Experiment: PBM E-score (8-mer binding enrichment) (E-score (-0.5 to 0.5)); higher = stronger / more preferred TF binding; most listed sequences are background and not binding sites
Conditions: protein concentration: 200 nM; construct: GST-DNA-binding domain
How it was run: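 Universal all-10-mer Agilent arrays, double-stranded by primer extension on fresh or once-stripped slides, were probed with about 100-200 nM GST-tagged yeast transcription factors made by PURExpress. Fluorescent anti-GST detected bound protein, and masliner normalised the scans. E-scores from the Universal PBM Analysis Suite were given to each ungapped eight-base word pooled with its reverse complement.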

Row | Sequence | PBM E-score
1 | GTGGTAAA | 0.00807
2 | GATTCTGC | 0.0298
3 | GCGATCGA | 0.0931
4 | ATCAAACG | 0.0117
5 | ACTTCGGC | 0.286
6 | ATTGAAAA | 0.0694
7 | ATCCCGAT | 0.323
8 | GCTAATTA | 0.0306
9 | CCCAACAC | -0.0204
10 | ACTATAAT | -0.0937
11 | CACTATGA | -0.306
12 | AGGAAATC | 0.178
13 | ACGTTGCG | 0.0382
14 | CCACAAAA | -0.0463
15 | CCTGTAAC | -0.154
16 | GCCATAGC | -0.185
17 | AAATCATC | -0.0126
18 | AGACTCTG | -0.231
19 | AAAAATGT | 0.0376
20 | AATGATCC | 0.00784
21 | AGAACAAG | -0.0928
22 | AAGTAGCT | -0.302

Row | Sequence | PBM E-score
23 | GTTGTATA | -0.18
24 | AAGAGGCA | -0.178
25 | CCAAGCAA | -0.208
26 | CACGTGCC | -0.1
27 | AGTTAGAG | -0.124
28 | CTGTTTCC | 0.0692
29 | AGAATTGA | -0.0344
30 | GTTAGTGA | -0.205
31 | ACGTGTGC | -0.36
32 | AAAGTCGG | 0.176
33 | TTATCCAA | 0.00093
34 | GACGGAAC | 0.192
35 | AGCAGTGG | -0.0331
36 | AGGTCTGA | -0.185
37 | CTGCGACC | -0.138
38 | AACGCCGA | 0.433
39 | AGCGGAAC | 0.333
40 | ATAGCGGA | 0.33
41 | GGACAATA | 0.138
42 | CTAGCTTA | -0.0476
43 | ACTCGAGG | -0.106
44 | AGAAAAAT | -0.0735

Row | Sequence | PBM E-score
45 | CCTTGCCG | 0.0575
46 | GACAGCGC | 0.187
47 | ATCACAGC | -0.0699
48 | AATGGGCC | 0.0902
49 | CCCTGATC | 0.0512
50 | CTGTCATA | -0.302
51 | ACCGGTCG | 0.173
52 | CCCATCAC | -0.129
53 | CGAGAAGC | 0.101
54 | CCTGCTAC | -0.0899
55 | ACTCCGCA | 0.452
56 | ACAGAACA | -0.0986
57 | TAGGCGCA | -0.0323
58 | CCATGGCA | -0.0471
59 | GCGGAGTA | 0.449
60 | ACCCGGGA | 0.307
61 | CACAATCG | 0.0584
62 | GAAACAGC | 0.049
63 | CCGCTAAC | 0.194
64 | AGGTTACT | 0.0708
65 | CAATATCA | -0.144
66 | GTCAGAAC | -0.0451

Row | Sequence | PBM E-score
67 | CAGCGGAA | 0.359
68 | GGAGTTAC | 0.399
69 | GACGATTA | -0.0026
70 | CCGACCCG | 0.271
71 | GAAGACGC | -0.0796
72 | CACCCCGG | 0.314
73 | AATCACAC | -0.055
74 | CTATCTTA | -0.0413
75 | GCTAAATA | -0.231
76 | CCGGGTGC | 0.283
77 | CAAATGTA | 0.135
78 | CTCAACAG | -0.24
79 | GAGTTTGC | 0.166
80 | CTAAGCTC | -0.179
81 | ATGGTGCG | -0.0428
82 | ACGGCCCT | -0.189
83 | CACTTAAG | -0.00775
84 | GCCCATGA | -0.125
85 | GCACGCCC | -0.00134
86 | AATCATGT | -0.25
